The list shows a part of the results.
B1: chr16:3727180:3727281:-|3pUTR|ENSG00000005339|msi1|total|mutant (ssRNA)
RNA: GGGAGUUCUACAGUCCGACGAUCAAUGCAAGCUUAUAAUGUAUCCCGAUAACUUUGUGAUGUUUCGGGAAGAUUUUUUUCUACCGUGAACUCUGUGGGCGUCUCCCAGUAUUACCCUGGAUGACCGGAAUUGACUCCGGCGUGCAACAGAGGAUUGAGCAUCA
B2: chr7:6403584:6403671:+|3pUTR|ENSG00000136238|msi1_unk|total|mutant (ssRNA)
RNA: GGGAGUUCUACAGUCCGACGAUCUUUUCCCGUAACCCGGUGUAAAAAUCAUGUGUUGCAGCUUUACCGUUUUUAAAAUAUUUCCGAUAAUUCUUAAACUAUGAACCUUCUUAACAUCACUGUCUUGCCAGAUUACCGACACUGCAACAGAGGAUUGAGCAUCA
B3: chr2:190436306:190436418:+|CDS|ENSG00000151690|unk|FALSE|unique (ssRNA)
RNA: GGGAGUUCUACAGUCCGACGAUCCCUUUUGCCUGUGUAUUACAAACAGCUGGGAAUGUCUCCAAGCCAGAGUGGACUACUAGUAGGUAUUCGUUACUUCAUUGAAUUCUGCAGUGCCCCCUUUUGGGGUGUAGUUGCAGACCGCAACAGAGGAUUGAGCAUCA
B4: chr1:51919672:51919773:-|3pUTR|ENSG00000169213|unk|total|mutant (ssRNA)
RNA: GGGAGUUCUACAGUCCGACGAUCUAUUCUUUGCCUGCCCCUGGGGUUCUCUGCAGAUGGUCCCAGUAACCGAUACUCAGCACCCGACUAACAUAACAGGUCACUACACGGGUGCAGAAUCACUUUACAAAAGAAGACUCUGUUCAACAGAGGAUUGAGCAUCA
B5: chr4:102797111:102797208:-|3pUTR|ENSG00000109332|msi1_unk|FALSE|overlapping (ssRNA)
RNA: GGGAGUUCUACAGUCCGACGAUCUCUGAGAAGACUUAAGUUCUUCCAGCUUUGGACAAUAACUGCUUUUAGAAACUGUAAAGUAGUUACAAGAGAACAGUUGCCCAAGACUCAGAAUUUUUAAAAAAAAAAAUGGAGCAUGUGCAACAGAGGAUUGAGCAUCA
B6: chr6:132296306:132296407:-|3pUTR|ENSG00000079931|msi1|FALSE|unique (ssRNA)
RNA: GGGAGUUCUACAGUCCGACGAUCAUGGGAAACAUAGAAAUGGUAUGUAUUAAUAACUGAUCAUAGGCUGAGGAGAAAAAAUGUAGCUGGCUGCAAACCCAGUGCUGUGAGGUGACUUAUAUGAGGUUCCAGAUCAAAGACAGGCAACAGAGGAUUGAGCAUCA
B7: ENSG00000198589:be:win_5701|CDS|ENSG00000198589|bound_else_gene|NA|bound_elsewhere_windowed (ssRNA)
RNA: GGGAGUUCUACAGUCCGACGAUCUUUAUCCUGAGCAGGCAGAGAGCAGAAGAUAUUCACAGACAUGCGGAAUUUGAGUCACUGUGUGCCCAGUAUUCUGCAGACAAACGAGAAGAUGAGAAGAUGUGUGAUCAUUUGAUAAGACAACAGAGGAUUGAGCAUCA
B8: chr17:34256851:34257067:+|3pUTR|ENSG00000108691|msi1|FALSE|unique (ssRNA)
RNA: GGGAGUUCUACAGUCCGACGAUCUUAAGUAAUGUUAAUUCUUAUUUAAGUUAUUGAUGUUUUAAGUUUAUCUUUCAUGGUACUAGUGUUUUUUAGAUACAGAGACUUGGGGAAAUUGCUUUUCCUCUUGAACCACAGUUCUACCAACAGAGGAUUGAGCAUCA
B9: chr3:141442868:141442977:+|CDS|ENSG00000177311|unk|FALSE|unique (ssRNA)
RNA: GGGAGUUCUACAGUCCGACGAUCCCAGCCAUCACUAAUGGGCCAAGGAUCACAAAUGCAUUUUCCAUCAUCGAAACAGAAAAUAGUAAUAACAUGUUUUCCCCGCUGGACUUGAGGGCAAGUUUCAAAAAGGUCUCCGACUCCCAACAGAGGAUUGAGCAUCA
B10: ENSG00000162129:stop:overlap|stop_codon|ENSG00000162129|stop_codon|NA|stop_codon (ssRNA)
RNA: GGGAGUUCUACAGUCCGACGAUCAGACUCGCAGACUGGACAUCCGGGCACCACUGCACCCUGAGAAGGUGUGCAACACCAUCUAGCAGCCACCUGCCUGCUCCUAUGUGCCCUCACCAUCCAAUAAAGGCCCCUUGGCUGUGGCAACAGAGGAUUGAGCAUCA
B11: chr12:110381781:110381892:-|CDS|ENSG00000196510|unk|total|mutant (ssRNA)
RNA: GGGAGUUCUACAGUCCGACGAUCAAGGCCAUUCAGCUGAACAGUAACCGUGUUCAAGCUCUGCUACUUAAGGGAGCAGCACUCCGGAACAUGGGCAGAGUCCAAGAAGCAAUAAUCCACUUUCGGGAGGCCAUACGGCUCGCACAACAGAGGAUUGAGCAUCA
B12: chr16:57471571:57471634:+|3pUTR|ENSG00000102978|msi1_unk|FALSE|overlapping (ssRNA)
RNA: GGGAGUUCUACAGUCCGACGAUCAUAGCCUUUAUUCAGGGGGCCUAUAAACCCUUCCAGUUCUUGCCCCAGGGCUGGCCUGCUAGCGCUUCAAAUUCCCAGGUGUCCCUAAUUUGAGAAGUAACCUUUUGGAAUAGCAUUAGACAACAGAGGAUUGAGCAUCA
B13: chr1:231019617:231019718:-|3pUTR|ENSG00000182118|msi1|total|mutant (ssRNA)
RNA: GGGAGUUCUACAGUCCGACGAUCGCAGGGAGUUCUCCGCGGAUGCAUGGUGGCAGUCUGCUUUGAUGGCAGCAGUUUCUGCUCCGGUGACCCCGAGGUCCUCAGCAGUAUCCUCCACACCUAUUUAUUGAGGUGCACCUGCUGCAACAGAGGAUUGAGCAUCA
B14: chr11:102955251:102955493:-|CDS|ENSG00000137745|control|control|control (ssRNA)
RNA: GGGAGUUCUACAGUCCGACGAUCCCGAGAAAUGCAGUCUUUCUUCGGCUUAGAGGUGACUGGCAAACUUGACGAUAACACCUUAGAUGUCAUGAAAAAGCCAAGAUGCGGGGUUCCUGAUGUGGGUGAAUACAAUGUUUUCCCCAACAGAGGAUUGAGCAUCA
B15: ENSG00000184840:stop:overlap|stop_codon|ENSG00000184840|stop_codon|NA|stop_codon (ssRNA)
RNA: GGGAGUUCUACAGUCCGACGAUCCCAUCGGUGUCUGGCAGAUGCGGCACCUCAAGAGCUUCUUUGAAGCCAAGAAGCUUGUGUAGCUGUCCCAGGCGUCACAACCCAUCCUCCCAGGCUGGGGGAGAAAGGACCUCCUGGAACCAACAGAGGAUUGAGCAUCA
B16: chr7:77639488:77639589:+|3pUTR|ENSG00000127947|msi1|FALSE|bound_elsewhere (ssRNA)
RNA: GGGAGUUCUACAGUCCGACGAUCAGUAUUAUUGCCUUAAUGUCUCUUAACCCUGUUACACGCUGCUUGUAGACAUGUUAAUAUAGUAAUACCUUUAUGAUAUAUUGAGUUUAAGGACUACUCUUUUUCUGUUUUAUCAUGUAUCAACAGAGGAUUGAGCAUCA
B17: chr10:101781316:101781432:-|3pUTR|ENSG00000107833|unk|FALSE|unique (ssRNA)
RNA: GGGAGUUCUACAGUCCGACGAUCCCCACCUGCCUGUGAGAAUUGGAGGUUAGUGCCUGAAGCUCAGAGCUACACAUUUUUAAUAGUUUUUACAUUUUUGGAUAAAGGUUGAAAUAAAGUGGUGUGGAGUUUUUGCAGCUCUUGCAACAGAGGAUUGAGCAUCA
B18: chr11:11963431:11963477:-|3pUTR|ENSG00000050165|msi1_unk|FALSE|overlapping (ssRNA)
RNA: GGGAGUUCUACAGUCCGACGAUCUUGACACUGUCCCUCUUUGGCAGUUGCAUUAGUAACUUUGAAAGGUAUAUGACUGAGCGUAGCAUACAGGUUAACCUGCAGAAACAGUACUUAGGUAAUUGUAGGGCGAGGAUUAUAAAUCAACAGAGGAUUGAGCAUCA
B19: chr16:70398910:70399011:-|5pUTR|ENSG00000157350|unk|total|mutant (ssRNA)
RNA: GGGAGUUCUACAGUCCGACGAUCCACUUGCAUGGAACCCAAGUCCCCUGAAGCCCCUGUGCUCUCUGUUGUGAUUGGAGUUCCCGGGCUUCCCCGCUGCCGGGAACGAGGGGCCGCCUCAUUGUCUGCUCAUGAACCACAAGGCAACAGAGGAUUGAGCAUCA
B20: chr19:5558166:5561399:-|three_prime_utr|ENSG00000223573|control|control|control (ssRNA)
RNA: GGGAGUUCUACAGUCCGACGAUCCCAGCUGAUGCACACUGCUUCAGACACUCCUGCUGGAGCCCCAGUCCCUGACAAGGACCUAGGACAUUUUUGCUCCUGCCCAGCCUAUCGGGAGGGAGCCUUGAGCCUUUCAGCUCUGCUCAACAGAGGAUUGAGCAUCA
B21: chr15:101302471:101305355:-|three_prime_utr|ENSG00000140479|control|control|control (ssRNA)
RNA: GGGAGUUCUACAGUCCGACGAUCACGGAAGCUCUUCAUUCAGUUCUGCUGCCGCACGUGCCUCCUGGCCGGGUAAGGGUGCCUAGCUGCCCACAGAGGGCAGGCACUCCCAUCCAUCCAUCCGUCCACCUUCCUCCAGACUGUCAACAGAGGAUUGAGCAUCA
B22: chr22:41636480:41636706:+|CDS|ENSG00000196419|unk|total|mutant (ssRNA)
RNA: GGGAGUUCUACAGUCCGACGAUCAUGGGCCACGGAUCUGACUACUCACUCAGUGAAGUGCUGUGGGUCUGUGCCAACCUCUUCCGUGAUGUCCAAUUCAAGAUGAGUCAUAAGAGGAUCAUGCUGUUCACCAAUGAAGACAACCAACAGAGGAUUGAGCAUCA

These binders were tested against MSI1 full-length (mouse, UniProt Q61474 1-362) (assay: nsRBNS (natural sequence RNA bind-n-seq); RBNS binding buffer (assumed for nsRBNS): 25 mM Tris pH 7.5, 150 mM KCl, 3 mM MgCl2, 0.01% Triton X-100, 500 ug/ml BSA, 20 U/ml SUPERase-In, 4 C; UNK is unkempt and MSI1 is Musashi-1; names of the RNAs are library labels; protein concentration not given here; high values mean tight binding).
UniProt Q61474, sequence (Q61474 whole entry): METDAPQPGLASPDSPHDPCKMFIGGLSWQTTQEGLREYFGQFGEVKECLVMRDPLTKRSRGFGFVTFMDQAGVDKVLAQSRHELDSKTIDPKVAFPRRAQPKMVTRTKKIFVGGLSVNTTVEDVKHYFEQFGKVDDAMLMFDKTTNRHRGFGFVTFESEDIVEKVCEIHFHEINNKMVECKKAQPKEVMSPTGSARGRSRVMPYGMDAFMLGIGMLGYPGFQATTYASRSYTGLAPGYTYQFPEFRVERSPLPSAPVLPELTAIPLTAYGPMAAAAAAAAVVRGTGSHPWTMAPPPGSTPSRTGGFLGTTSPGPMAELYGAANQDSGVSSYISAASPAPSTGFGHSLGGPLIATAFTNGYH

Binder | binding signal [enrichment R]
B1 | 0.299
B2 | 0.784
B3 | 0.399
B4 | 0.446
B5 | 0.542
B6 | 0.782
B7 | 0.412
B8 | 2.2
B9 | 0.514
B10 | 0.491
B11 | 0.369
B12 | 3.1
B13 | 0.43
B14 | 0.595
B15 | 0.931
B16 | 1.67
B17 | 0.865
B18 | 1.59
B19 | 0.446
B20 | 0.438
B21 | 0.558
B22 | 0.362
